# Measurements published in PMC4336329 (PLoS ONE, 2015).
# Out of some 310,000 compounds screened, about 14,000 (4.5%) showed an effect of 50% or more. The effect is printed as a negative number. The list shows a part of the results.
# Biological target: human ether-à-go-go-related gene (hERG) potassium channel (human, UniProt Q12809)
# Assay: primary screen, population patch clamp on CHO cells stably expressing hERG
# 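Further: peak tail current of the secondary pulse compared with the same well before compound.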
# Chain of human ether-à-go-go-related gene (hERG) potassium channel (Q12809 whole entry, looked up): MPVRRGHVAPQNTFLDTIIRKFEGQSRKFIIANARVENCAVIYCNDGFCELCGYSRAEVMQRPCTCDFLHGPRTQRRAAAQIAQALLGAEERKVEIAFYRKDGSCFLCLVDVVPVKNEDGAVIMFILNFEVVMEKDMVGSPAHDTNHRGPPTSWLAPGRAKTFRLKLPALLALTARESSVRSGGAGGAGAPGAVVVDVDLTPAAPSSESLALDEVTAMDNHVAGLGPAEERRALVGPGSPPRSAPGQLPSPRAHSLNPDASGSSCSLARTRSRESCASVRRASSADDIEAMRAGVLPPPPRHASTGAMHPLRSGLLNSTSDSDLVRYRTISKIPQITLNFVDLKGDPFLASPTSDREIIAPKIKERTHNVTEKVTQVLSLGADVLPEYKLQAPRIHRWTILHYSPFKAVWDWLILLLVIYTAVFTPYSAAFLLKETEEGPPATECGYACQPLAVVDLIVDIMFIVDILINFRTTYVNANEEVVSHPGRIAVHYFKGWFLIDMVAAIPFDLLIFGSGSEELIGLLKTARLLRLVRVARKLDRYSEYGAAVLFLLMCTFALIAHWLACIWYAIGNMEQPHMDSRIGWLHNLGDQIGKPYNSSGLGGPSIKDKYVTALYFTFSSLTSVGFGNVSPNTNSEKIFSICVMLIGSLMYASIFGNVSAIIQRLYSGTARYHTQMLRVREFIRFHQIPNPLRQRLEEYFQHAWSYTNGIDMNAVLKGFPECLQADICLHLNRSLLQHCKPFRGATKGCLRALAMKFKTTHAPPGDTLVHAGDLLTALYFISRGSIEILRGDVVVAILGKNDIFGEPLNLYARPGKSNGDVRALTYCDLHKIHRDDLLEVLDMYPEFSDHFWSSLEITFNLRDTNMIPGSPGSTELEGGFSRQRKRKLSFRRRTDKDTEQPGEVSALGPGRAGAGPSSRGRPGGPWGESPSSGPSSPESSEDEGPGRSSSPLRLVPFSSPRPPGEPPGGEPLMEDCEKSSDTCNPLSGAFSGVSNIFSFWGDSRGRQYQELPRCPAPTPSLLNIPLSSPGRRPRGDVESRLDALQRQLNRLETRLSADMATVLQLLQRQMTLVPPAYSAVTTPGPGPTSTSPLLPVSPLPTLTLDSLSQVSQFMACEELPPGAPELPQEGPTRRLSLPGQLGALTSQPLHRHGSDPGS
row,SMILES,"hERG current change (%, negative = inhibition) at 10uM [%]"
1,Cc1cccc(C)c1NC(=O)CCCSc1nnc(N)s1,7.8
2,COc1ccccc1NS(=O)(=O)c1cccc(NC(=O)c2[nH]c(C)c(C(C)=O)c2C)c1,13.7
3,CCOC(=O)c1c[nH]c2c(Cl)ccc(Cl)c2c1=O,-4.33
4,Cn1cnc(S(=O)(=O)Nc2ccccc2N2CCOCC2)c1,0.647
5,Cc1cc(C)c(NC(=O)c2ccc(CN3CCc4ccccc4C3)cc2)c(C)c1,-26.6
6,c1ccc(Cn2nnnc2-c2ccco2)cc1,-3.96
7,Cc1onc(-c2ccccc2)c1C(=O)N1CCN(c2ccccc2)CC1,11.9
8,COCC(=O)N1CCC(Oc2ccc(C(=O)NC(C)c3nc(C)sc3C)cc2)CC1 (centres unmarked),21
9,CCOc1ccccc1C(=O)NC1CCN(CC(=O)Nc2cc(OC)ccc2OC)CC1,-77.2
10,Br.N=C(N)SCCc1cnc[nH]1,11.9
11,COC(=O)c1ccc2c(=O)[nH]c(COC(=O)CCC(=O)c3ccc(Cl)cc3)nc2c1,7.45
12,COc1ccc(C(C(=O)NC2CCCC2)N(C(=O)c2ccco2)c2cc3c(cc2C(C)=O)OCO3)cc1 (centres unmarked),1.72
13,COCCNC(=O)/C(C#N)=C/c1ccc(OCc2ccccc2)cc1,4.93
14,COc1ccc(C(=O)OCc2ccc(C)cc2)cc1S(=O)(=O)N1CCOCC1,-24.6
15,O=C(CCNS(=O)(=O)c1ccccc1)Nc1ccccc1,17.8
16,CC(C)C(NC(=O)COc1ccc2ccccc2c1)C(=O)N/N=C/C=C/c1ccccc1 (centres unmarked),14.8
17,O=C(C1CCN(S(=O)(=O)N2CCC3(CC2)OCCO3)CC1)N1CCN(Cc2ccccc2)CC1,-25
18,COc1ccc(C(=O)N/C(=C\c2cn(S(=O)(=O)N(C)C)c3ccccc23)C(=O)NC(C)C)cc1,23.9
19,COC(=O)C1=C(N)N(c2ccccc2C(F)(F)F)C2=C(C(=O)CCC2)C1c1ccc2c(c1)OCO2 (centres unmarked),20.5

row,SMILES,"hERG current change (%, negative = inhibition) at 10uM [%]"
1,COc1cc2c(cc1OC)C(COc1ccccc1OC)N(C(C)=O)CC2 (centres unmarked),14.8
2,CCOC(=O)N1CCC(C(N)=O)CC1,9.11
3,O=C(N/N=C/C=C/c1ccco1)c1cnccn1,-1.16
4,CCCCNCc1cc(OC)c(OCC(N)=O)cc1Br,-1.04
5,CN(C)c1ccc(C(CNC(=O)Cc2cccc3ccccc23)N(C)C)cc1 (centres unmarked),-32.8
6,CN(CC(=O)NCc1ccccc1)S(=O)(=O)c1ccc2c(c1)CCC(=O)N2,-14.7
7,O=C(Nc1ccc(Br)cc1)c1cccc2c1C(=O)N(C1CCCCC1)C2,16.4
8,O=c1c2ccc([N+](=O)[O-])cc2ncn1Cc1ccccc1C(F)(F)F,-31.8
9,CC(=NCCCn1ccnc1)c1c(-c2ccccc2)[nH]n(-c2nc3ccccc3s2)c1=O,-70.8
10,CC(=O)NC(c1ccc(C)cc1)c1cc(Cl)c2cccnc2c1O (centres unmarked),4.05
11,CC(=O)NC(C)c1cc(Cl)c2cccnc2c1O (centres unmarked),15.3
12,CCn1c(COc2ccc(Cl)cc2)nnc1SC1CCc2ccccc2C1=O (centres unmarked),-15.5
13,COc1ccc2nc(C)cc(N3CCOCC3)c2c1,-14.6
14,COc1ccc(N(C)C(=O)c2cc3c(Cl)nc4ccccc4c3s2)cc1,-4.49
15,Cc1noc(C)c1S(=O)(=O)Nc1ccc(C(C)C)cc1,-17.6
16,COc1ccc(S(=O)(=O)N2CCC(c3cc(-c4cccc5ccccc45)n[nH]3)CC2)cc1,19
17,O=S(=O)(NCC1NCCc2ccccc21)c1ccccc1 (centres unmarked),-42.5
18,Cc1nc(SCC(=O)NCc2ccco2)[nH]c(=O)c1C,18.1
19,COc1ccc(CCNC(=O)c2cccc(C(=O)NCCc3ccc(OC)cc3)n2)cc1,-36.9

row,SMILES,"hERG current change (%, negative = inhibition) at 10uM [%]"
1,CCC(=O)Nc1cccc(C2=NOC3(C2)C[C@@H](C(N)=O)N(C(=O)c2ccccc2C(=O)c2ccccc2)C3)c1 (some centres unmarked),0.194
2,O=C(C1CCN(c2ncnc3c2nc2n3CCCCC2)CC1)N1CCN(c2ccc(F)cc2)CC1,-51.5
3,Nc1cccc(-c2cnc3ccccc3n2)c1,14.7
4,O=S(=O)(Cc1ccccc1)NCC1CCCN(Cc2cccc3nonc23)C1 (centres unmarked),-12.2
5,COc1ccc(COC(=O)C2CCN(S(=O)(=O)c3ccc(F)cc3)CC2)cc1,-13.9
6,COc1ccc(/C=C2\CCC(C3CCCC3)C2=O)c(OC)c1 (centres unmarked),13.1
7,COc1ccc(C(=O)Nc2cc3c(cc2N2CCCCC2)n(C)c(=O)n3C)cc1OC,13.1
8,COC(=O)c1ccccc1NC(=S)NC(=O)c1ccc2ccccc2c1,33.2
9,CC1=C(C)CC(C(=O)Nc2nc(C)cs2)C(C(=O)O)C1 (centres unmarked),14.2
10,O=C(C1CC(c2ccc(Cl)c(Cl)c2)=NO1)N1CCC2(CC1)OCCO2 (centres unmarked),-19.8
11,COc1ccccc1-c1nnc(SCC(=O)c2c(N)n(C3CC3)c(=O)[nH]c2=O)o1,-7.39
12,CCC(Oc1ccccc1OC)C(=O)Nc1ccc2c(c1)n(C)c(=O)n2C (centres unmarked),-2.13
13,CCc1ccc(OCC(O)CN2CCN(c3ccccn3)CC2)cc1.Cl (centres unmarked),-67.4
14,CC(C)c1ccc(NCCC(=O)c2cccs2)cc1,2.35
15,CCOC(=O)CSc1nc(C)c2cc(OC)ccc2n1,1.7
16,CCCCOC(=O)CCc1c(C)n[nH]c1C,3.8
17,Cc1csc(SCC(=O)N(C)c2c(N)n(Cc3ccccc3)c(=O)[nH]c2=O)n1,15.4
18,O=C(COC(=O)CCc1nc2ccccc2s1)Nc1cccc(S(=O)(=O)N2CCOCC2)c1,-42.3
